Laboratory results taken from the supplement of paper PMC7125110.
± gives the standard error. This sample is rich in variants without activity.

B1: glmS ribozyme (parent)
chain: AUAAAAGCGCCAGAACUACAGAAAUGUAGUUGACGAGGAGGAGGUUUAUCGAAUUUUCGGCGGAUGCCUCCAAA

Experiments:
Settings in all cases: with glucosamine-6-phosphate
glucosamine-6-phosphate [1] = variants of: B1; experiment: self-cleavage kobs at 640 uM GlcN6P; higher = faster cleavage; RNA array
Method in brief: (§1)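 On sequenced MiSeq chips, barcoded ribozyme variants were made in situ by E. coli RNA polymerase and followed at 37 °C through a hybridised Cy3 probe. Glucosamine-6-phosphate was flowed in at 40 μM to 10 mM in HEPES/KCl/Mg(OAc)2 buffer. Exponential fits to normalised per-tile medians gave kobs, and weighted Michaelis–Menten fits gave kcat and KM.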

glucosamine-6-phosphate [2] = variants of: B1; experiment: self-cleavage kobs at 160 uM GlcN6P; higher = faster cleavage; RNA array
Method in brief: as §1

glucosamine-6-phosphate [3] = variants of: B1; experiment: self-cleavage kobs at 2500 uM GlcN6P; higher = faster cleavage; RNA array
Method in brief: as §1

glucosamine-6-phosphate [4] = variants of: B1; experiment: self-cleavage kobs at 10000 uM GlcN6P; higher = faster cleavage; RNA array
Method in brief: as §1

Row | Variant | self-cleavage kobs at 640 uM GlcN6P (glucosamine-6-phosphate [1]) | self-cleavage kobs at 160 uM GlcN6P (glucosamine-6-phosphate [2]) | self-cleavage kobs at 2500 uM GlcN6P (glucosamine-6-phosphate [3]) | self-cleavage kobs at 10000 uM GlcN6P (glucosamine-6-phosphate [4])
1 | C10G U45A U49C | < 1e-05 s⁻¹ | < 1e-05 s⁻¹ |  | 
2 | A12C A42U C50G A52G | < 1e-05 s⁻¹ |  |  | 
3 | C11U U30A G37C G38U G40C G51A | < 1e-05 s⁻¹ |  | < 1e-05 s⁻¹ | 
4 | A12G G13A G29A U56G G60U | < 1e-05 s⁻¹ |  | < 1e-05 s⁻¹ | 
5 | C11A U31G C50A A53G | < 1e-05 s⁻¹ |  |  | < 1e-05 s⁻¹
6 | C10U G38A C50U | < 1e-05 s⁻¹ |  |  | 
7 | C11A G13A G38U U46G U55C G62C A64C | < 1e-05 s⁻¹ |  |  | 
8 | C10U A12G A42G | < 1e-05 s⁻¹ | < 1e-05 s⁻¹ |  | 
9 | C10G G13U | < 1e-05 s⁻¹ | < 1e-05 s⁻¹ | < 1e-05 s⁻¹ | 
10 | C10U C11U G60U G63A | < 1e-05 s⁻¹ |  |  | 
11 | C11G G13U C50G G60U C61G | 5.02e-05 ± 2.4e-05 s⁻¹ |  |  | 
12 | C11G U55G C71U | < 1e-05 s⁻¹ |  |  | 
13 | G13A G38C | < 1e-05 s⁻¹ | < 1e-05 s⁻¹ | < 1e-05 s⁻¹ | < 1e-05 s⁻¹
14 | C11G A14G G63U | < 1e-05 s⁻¹ | < 1e-05 s⁻¹ |  | 
15 | C10G G29A G62U C71U | < 1e-05 s⁻¹ | < 1e-05 s⁻¹ | < 1e-05 s⁻¹ | 
16 | A12C A33C G35A G38A | < 1e-05 s⁻¹ |  |  | 

Row | Variant | self-cleavage kobs at 640 uM GlcN6P (glucosamine-6-phosphate [1]) | self-cleavage kobs at 160 uM GlcN6P (glucosamine-6-phosphate [2]) | self-cleavage kobs at 2500 uM GlcN6P (glucosamine-6-phosphate [3]) | self-cleavage kobs at 10000 uM GlcN6P (glucosamine-6-phosphate [4])
17 | C11A G40U U56C A64C C67G | < 1e-05 s⁻¹ |  |  | 
18 | A12U G44A U65G C67U | 0.000969 ± 0.00016 s⁻¹ | 0.000241 ± 6.5e-05 s⁻¹ |  | 
19 | A12U G51U | < 1e-05 s⁻¹ | < 1e-05 s⁻¹ | < 1e-05 s⁻¹ | < 1e-05 s⁻¹
20 | A12C A36U G43U U56A | < 1e-05 s⁻¹ | < 1e-05 s⁻¹ |  | 
21 | C10U G13A U56A G59U | < 1e-05 s⁻¹ |  | < 1e-05 s⁻¹ | 
22 | G13A C16U A48U U55A | < 1e-05 s⁻¹ |  |  | 
23 | C10G C58G G62C | < 1e-05 s⁻¹ |  |  | 
24 | A12U A15G G29U G40U U56C | < 1e-05 s⁻¹ |  |  | 
25 | A12G G44U C70G | < 1e-05 s⁻¹ |  | < 1e-05 s⁻¹ | 
26 | C11G U30G A42U A53U G63U U65A C68G | < 1e-05 s⁻¹ |  |  | 
27 | C10U U56G G63U | < 1e-05 s⁻¹ |  |  | 
28 | G13C A14C C71U | 4.16e-05 ± 1.1e-05 s⁻¹ |  | 0.000105 ± 1.7e-05 s⁻¹ | 
29 | A12U A15C A42G | 0.00381 ± 0.0017 s⁻¹ | 0.00123 ± 0.0005 s⁻¹ | 0.0282 ± 0.014 s⁻¹ | 
30 | G13C A33U G60C | < 1e-05 s⁻¹ |  |  | 
31 | C11G G41U C50U | < 1e-05 s⁻¹ |  | < 1e-05 s⁻¹ | 
32 | C11A G41A G51U | < 1e-05 s⁻¹ |  |  | 
